# The BET-seq Pho4 binding data (Le et al. 2018)
# The other results are listed elsewhere or left out. The energies were worked out here from pooled read counts, against the library average; single values are noisy.
# Target: T1, Pho4 (S. cerevisiae) (UniProt P07270)
# T1 sequence: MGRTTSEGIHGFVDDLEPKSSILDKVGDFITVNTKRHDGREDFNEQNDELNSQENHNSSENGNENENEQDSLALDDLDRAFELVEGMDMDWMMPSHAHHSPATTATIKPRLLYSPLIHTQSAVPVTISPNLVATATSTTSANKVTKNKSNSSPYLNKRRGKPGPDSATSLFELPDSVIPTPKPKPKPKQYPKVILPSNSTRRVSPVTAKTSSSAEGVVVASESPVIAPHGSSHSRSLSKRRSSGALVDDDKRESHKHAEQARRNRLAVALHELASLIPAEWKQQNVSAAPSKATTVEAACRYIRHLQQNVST
# Experiment: relative binding free energy (BET-seq); higher = weaker binding
# Settings: reference: library average
row,Sequence,relative binding free energy [kcal/mol]
1,GGTATCACGTGTGGGT,0.2
2,ATATACACGTGTGGTC,-0.04
3,AATTGCACGTGTATTA,0.11
4,TGGGTCACGTGCAAGA,0.04
5,ACGTGCACGTGATTTG,0.06
6,TGAGGCACGTGGTTTT,-0.05
7,ATTTACACGTGGTAAA,0.09
8,ATATACACGTGTGGGC,0.23
9,CGTGGCACGTGTCGGA,0.02
10,TGAGACACGTGTAAAT,0.21
11,GCTGGCACGTGTAGGT,0
12,TATTCCACGTGGGTTG,-0.02
13,CGGGTCACGTGAAAGA,0.41
14,TGGTTCACGTGTACGT,0.31
15,ATGTGCACGTGAAGCG,0.16
16,TGATTCACGTGTATCG,0.19
17,ACTGGCACGTGTGGAA,-0.1
18,CAATACACGTGGGGGG,0.02
19,GCGGGCACGTGTAGGA,-0.05
20,GGGCACACGTGGGGGA,-0.03
21,CGCTGCACGTGAGTTG,0.1
22,GGGGGCACGTGCGAAT,0.05
23,CGTTCCACGTGTTGGT,0.08

row,Sequence,relative binding free energy [kcal/mol]
1,GGCGGCACGTGATTAT,0.13
2,GCAGTCACGTGTGGGT,0.14
3,TAATACACGTGTTAGT,-0.15
4,ATTTGCACGTGGTTTT,0
5,GATCGCACGTGATTGT,0.25
6,GGGTACACGTGCACGT,0.17
7,AGGGCCACGTGAGTGA,0.02
8,TATGTCACGTGTTGTC,0.17
9,TTCTTCACGTGTTAAT,0.34
10,TGTGTCACGTGTTCGC,0.11
11,GGCGTCACGTGTGGTT,0.23
12,GGGGGCACGTGTGTCG,-0.15
13,AGGGGCACGTGACCTG,-0.01
14,CATTTCACGTGGAATG,0.32
15,AGCAGCACGTGGTAGG,-0.26
16,TTCGGCACGTGCGGGA,-0.26
17,GAGGGCACGTGTGAGT,-0.01
18,ATTCGCACGTGAAGTT,0.21
19,TTTCTCACGTGTTAAT,0.32
20,GAGTGCACGTGTCGGG,0.13
21,AGAAACACGTGTGTAT,0.03
22,GAAGGCACGTGTTAGG,-0.08
23,TGGTGCACGTGTATAT,-0.03

row,Sequence,relative binding free energy [kcal/mol]
1,GAGGGCACGTGTAGAT,0.29
2,TAAGTCACGTGGTTTA,0.17
3,GTGTACACGTGCGGAA,0.07
4,TTGGCCACGTGGGTAG,-0.13
5,AGCTTCACGTGAGGGA,0.33
6,GGGTGCACGTGATGCT,0.24
7,TGGTTCACGTGGTCAT,0.21
8,ATGTTCACGTGTTCGA,0.27
9,TCTGTCACGTGGGGCT,-0.11
10,AGGTGCACGTGGTAGC,-0.06
11,TGGTTCACGTGTCAGT,0.44
12,GGTCGCACGTGTAGGT,-0.08
13,GAGGTCACGTGAAGAT,0.31
14,TGTATCACGTGCTGAG,0.05
15,GTTTGCACGTGTGTGT,0.12
16,GGAATCACGTGGTAAG,0.13
17,GCTAGCACGTGTGGGA,0.06
18,TAATACACGTGGGTTA,-0.01
19,GATGTCACGTGTGATA,0.3
20,CGCTGCACGTGGTGTA,-0.17
21,AGTAACACGTGTTGTC,0.09
22,ATCAGCACGTGGTTGG,-0.09
23,TATATCACGTGTGGCT,0.14

row,Sequence,relative binding free energy [kcal/mol]
1,TTTATCACGTGGCTTT,0.06
2,TATGCCACGTGGTTAG,-0.19
3,GGATGCACGTGGAATT,0.08
4,ATTTGCACGTGGGACG,0.03
5,GGTATCACGTGCTGAG,0.17
6,AAATTCACGTGGAAGT,0.43
7,TGGTCCACGTGGGTTA,-0.02
8,GCTTCCACGTGGGGTG,-0.05
9,CTTGTCACGTGGCTGT,-0.03
10,AGATACACGTGTAGGG,0.06
11,GTGGACACGTGACGGA,0.22
12,TAGGTCACGTGTAAGT,0.17
13,ATTACCACGTGAGGGG,0.07
14,ATTGGCACGTGTTATC,-0.1
15,AGCGACACGTGGGGGG,-0.08
16,GATCGCACGTGAAGGT,0.17
17,TTCGACACGTGTTGTT,0.05
18,TGGATCACGTGAGGAT,0.32
19,TTGTGCACGTGGGCGG,-0.14
20,TGGCACACGTGATGTG,-0.03
21,GTGTCCACGTGTGGTT,0.09
22,TTATTCACGTGCAATT,0.35
23,GTTTGCACGTGGGTCC,-0.03

row,Sequence,relative binding free energy [kcal/mol]
1,TTGTGCACGTGATCGA,0.05
2,ATTTGCACGTGTTTTA,0.06
3,GTTAGCACGTGGTGAG,0.02
4,TGGGTCACGTGCATAT,0.15
5,TGTTTCACGTGATATC,0.25
6,GGTGTCACGTGTACAT,0.23
7,AGTGTCACGTGTGCGA,0.02
8,TGTGGCACGTGACTCG,0.06
9,TGAGGCACGTGTAGAT,0.21
10,GTGAGCACGTGTTCTG,-0.07
11,TACGGCACGTGTGGTC,0.02
12,CTAGTCACGTGTGTGA,0.23
13,GTTTACACGTGTAGCG,0.21
14,GTCAACACGTGTTAGG,0.05
15,CGATTCACGTGAAGGG,0.45
16,GGCTTCACGTGGGCAG,0.09
17,CGTAACACGTGGTCGG,-0.11
18,TGGTTCACGTGAGGAC,0.44
19,TTTGGCACGTGGGGCT,-0.13
20,ATGGGCACGTGATGAA,0.13
21,GGGCGCACGTGGTACG,-0.08
22,TCAGGCACGTGTTGAT,-0.02
23,CGTGGCACGTGGATGG,-0.08
